Hit rate of the full screen: of about 420,000 compounds, about 64,000 (15%) were called active. This list was built around the results that the source calls inconclusive (neither active nor inactive); the mix of calls is not that of the screen. Calls come from the whole dose curve; as a rule, active = well fitted inhibition curve with a large enough effect; inconclusive = small, poorly fitted or top-dose-only effect; inactive = flat fitted curve, though single readings scatter. Potencies of inconclusive entries are left out as doubtful fits.
Experiment: qHTS for Inhibitors of human tyrosyl-DNA phosphodiesterase 1 (TDP1): qHTS in cells in absence of CPT; note: nearly all actives have a fitted effect of over 55% in size
Details: DT40 Tdp1-/- hTDP1 cells, no CPT, ATP luminescence, 48 h; activity change, negative = growth inhibition: at 46.2 µM (top of the series) unless noted
Method in brief: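 Growth kinetics read by CellTiter-Glo luminescence after ≥48 hr at 37 °C. Cells: DT40 Tdp1-/- stably carrying human TDP1, 400 per well, compound exposure in the absence of CPT (DMSO vehicle).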
% is set by controls: 0 for no effect and ±100 for the full control effect; potency is the fitted concentration of half-maximal effect; tags give direction and shape of the fitted curve.

Row | Structure (SMILES) | Potency | activity change, negative = growth inhibition
1 | O=C(C[C@H]1CC[C@@H]2[C@H](COC[C@@H](O)CN2Cc2ccc(Cl)cc2)O1)NCCc1ccccc1 | inconclusive [inhibitor, partial curve] | 
2 | C[C@@H]1CN([C@H](C)CO)C(=O)c2cc(C#Cc3ccccc3F)cnc2O[C@@H]1CN(C)S(=O)(=O)c1ccccc1F |  | inactive: -1.08%
3 | O=c1cnc2cnc(Oc3ccccc3)nc2n1Cc1ccc(F)cc1 | inconclusive [inhibitor, single point] | 
4 | Cc1[nH]n(-c2ccc(Cl)cc2)c(=O)c1C(=O)c1ccccc1 | inconclusive [inhibitor, single point] | 
5 | Cc1nn(CCCC(=O)NC2CCC(C)CC2)c(=O)c2nn(-c3ccccc3)c(C)c12 (stereo not drawn) | inconclusive [inhibitor, partial curve] | 
6 | CCCOc1ccccc1C(=O)N(Cc1cccs1)C1CCS(=O)(=O)C1 (stereo not drawn) | inconclusive [inhibitor, partial curve] | 
7 | Cc1ccc(-n2c(=O)c3c(c4cc(C)ccc4n3C)n(CC(=O)N3CCCC3)c2=O)cc1 | inconclusive [inhibitor, single point] | 
8 | Cc1cc(C)n(/N=C/c2ccc(O)cc2)c(=O)c1C#N |  | inactive: -17.5%
9 | Cc1ccc2c(=O)cc(C(=O)Nc3ccc(S(=O)(=O)Nc4ncccn4)cc3)oc2c1C | inconclusive [inhibitor, single point] | 
10 | O=C(CSc1nc2c([nH]c3ccccc32)c(=O)n1-c1ccc(Cl)cc1)c1ccccc1 | inconclusive [inhibitor, full curve] | 
11 | Cc1ccc2nc(COc3ccccc3NC(=O)c3ccc(F)cc3)cc(=O)n2c1 |  | inactive: -7.72%
12 | Cc1cc(C)c(NC(=O)C2CCN(c3nn4c(=O)cc(C)nc4s3)CC2)c(C)c1 |  | inactive: -23.5%
13 | COc1ccccc1CNC(=O)c1cn(C)c2ccc(S(=O)(=O)N(C)C3CCCCC3)cc2c1=O | inconclusive [inhibitor, single point] | 
14 | CC1C(=O)N2CCCc3cc(NC(=O)COc4ccccc4)cc1c32 (stereo not drawn) | inconclusive [inhibitor, single point] | 
15 | CCOC(=O)Nc1cc(OC)cc2ccc(C)nc12 | inconclusive [inhibitor, single point] | 
16 | CCOc1ccc(NS(=O)(=O)c2ccc3c(c2)CCCN3C(=O)C2CCC2)cc1 | inconclusive [inhibitor, single point] | 
17 | Cc1ccc(NC(=O)CSc2cn(CC(=O)N3CCCC3)c3ccccc23)cc1Cl | inconclusive [inhibitor, single point] | 

Row | Structure (SMILES) | Potency | activity change, negative = growth inhibition
18 | O=C(CSc1nc2ccccc2[nH]1)Nc1cccc(S(=O)(=O)N2CCOCC2)c1 |  | inconclusive: -35.2% [inhibitor]
19 | COc1ccc(NC(=O)CCC(=O)c2cc(C)sc2C)cc1 |  | inactive: -4.38%
20 | CN(C)c1ccc(/C=C/c2cc(=O)[nH]c3ccccc23)cc1 |  | inactive: -29.1%
21 | COc1ccc(S(=O)(=O)N2CCOCC2)cc1NC(=O)CN1CCCc2ccccc21 | inconclusive [inhibitor, single point] | 
22 | Cc1ccc(NC(=O)c2cccc(NC(=O)CC3SC(N4CCCCC4)=NC3=O)c2)nc1 (stereo not drawn) | inconclusive [inhibitor, partial curve] | 
23 | O=C(CNS(=O)(=O)c1cccc(Br)c1)NCC1CCCCC1 |  | inactive: -12.1%
24 | O=C(c1cc2ccccc2oc1=O)N(Cc1cccs1)CC1CCCO1 (stereo not drawn) | inconclusive [inhibitor, single point] | 
25 | Cc1c(NC(=O)CSc2nnnn2-c2ccc(C(=O)O)cc2)c(=O)n(-c2ccccc2)n1C |  | inactive: 11.1%
26 | CCCC(=O)NC(=S)Nc1cccc(NC(=O)c2ccc(Cl)cc2Cl)c1 | inconclusive [inhibitor, single point] | 
27 | Cc1ccc(NC(=O)Cn2c(=O)nc(-c3ccccc3)c3ccccc32)cc1F |  | inactive: -29.3%
28 | COc1ccc(C(=O)Nc2ccccc2C(=O)N(Cc2ccco2)C(C(N)=O)C(C)C)cc1 (stereo not drawn) | inconclusive [inhibitor, single point] | 
29 | Cc1ccccc1NC(=O)CCCSc1nc2ccccc2s1 | inconclusive [inhibitor, single point] | 
30 | N#CCC(=O)N/N=C/c1cc([N+](=O)[O-])ccc1N1CCCC1 | inconclusive [inhibitor, single point] | 
31 | CC(=O)Nc1ccc(CN2CCC(N3CCC(C(=O)NC4CC4)CC3)CC2)cc1 |  | inactive: 11.9%
32 | CC(=O)N1CCc2c(sc(NC(=O)c3cccc(N4C(=O)CCC4=O)c3)c2C(N)=O)C1 |  | inactive: 7.35%
33 | CCCCNC(=O)C1(C)CCN1C(=O)c1ccc2sccc2c1 (stereo not drawn) | inconclusive [inhibitor, single point] | 
